Assay results published in PMC4336329 (PLoS ONE, 2015).
Screen size: about 310,000 compounds; about 2,200 (0.71%) showed an effect of 50% or more. Effects have a minus sign here. This is one part of the list.

Molecular target: human ether-à-go-go-related gene (hERG) potassium channel (human, UniProt Q12809)
Assay: primary screen, population patch clamp on CHO cells stably expressing hERG

human ether-à-go-go-related gene (hERG) potassium channel, sequence (Q12809 whole entry, looked up): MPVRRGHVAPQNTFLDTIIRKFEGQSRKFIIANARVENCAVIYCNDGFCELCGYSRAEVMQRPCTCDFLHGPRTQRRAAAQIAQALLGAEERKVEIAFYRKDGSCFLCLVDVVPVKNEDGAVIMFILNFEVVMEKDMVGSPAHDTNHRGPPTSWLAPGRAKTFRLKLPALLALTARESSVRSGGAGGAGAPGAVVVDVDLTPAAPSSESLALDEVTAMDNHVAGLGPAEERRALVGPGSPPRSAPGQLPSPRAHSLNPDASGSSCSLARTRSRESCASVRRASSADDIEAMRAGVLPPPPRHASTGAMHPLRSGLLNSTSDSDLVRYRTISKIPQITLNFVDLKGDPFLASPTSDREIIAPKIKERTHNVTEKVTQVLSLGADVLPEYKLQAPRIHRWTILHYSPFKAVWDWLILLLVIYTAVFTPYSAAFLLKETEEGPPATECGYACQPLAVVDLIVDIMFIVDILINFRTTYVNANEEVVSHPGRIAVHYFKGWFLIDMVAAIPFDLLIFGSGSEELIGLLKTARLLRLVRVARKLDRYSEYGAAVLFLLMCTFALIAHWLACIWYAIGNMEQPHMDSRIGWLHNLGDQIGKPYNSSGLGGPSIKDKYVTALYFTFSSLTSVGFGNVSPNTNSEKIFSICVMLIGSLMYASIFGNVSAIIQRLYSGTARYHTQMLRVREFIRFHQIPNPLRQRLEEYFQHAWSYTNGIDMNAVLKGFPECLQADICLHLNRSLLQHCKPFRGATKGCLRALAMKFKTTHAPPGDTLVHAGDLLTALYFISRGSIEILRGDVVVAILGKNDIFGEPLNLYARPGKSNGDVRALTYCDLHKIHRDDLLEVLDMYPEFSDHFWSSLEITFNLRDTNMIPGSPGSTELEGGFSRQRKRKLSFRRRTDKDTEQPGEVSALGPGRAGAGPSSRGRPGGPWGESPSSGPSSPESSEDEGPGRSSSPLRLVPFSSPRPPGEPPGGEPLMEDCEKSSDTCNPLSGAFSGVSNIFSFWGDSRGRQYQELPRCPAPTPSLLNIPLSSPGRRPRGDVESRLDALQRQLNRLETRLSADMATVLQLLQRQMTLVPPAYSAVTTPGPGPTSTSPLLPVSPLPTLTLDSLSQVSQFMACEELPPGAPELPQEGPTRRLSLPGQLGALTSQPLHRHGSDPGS

| Compound | hERG current change (%, negative = inhibition) at 1uM [%] |
| --- | --- |
| Cc1nnsc1C(=O)N1CCCC(Nc2ccc(C(C)C)cc2)C1 (stereo not shown) | -16.3 |
| Cc1c(C=C2C(=O)NC(=O)NC2=O)c(=O)n(-c2ccccc2)n1C | 12.5 |
| COc1ccc(C(=O)NC2CCCCCC2)cc1S(=O)(=O)N1CCCC1 | 15.1 |
| Cc1ccc(CNC(=O)CCNS(=O)(=O)c2cccc3nsnc23)cc1 | 11.4 |
| O=C(CCn1cnc2ccccc2c1=O)Nc1nc2c(s1)CCCC2 | 7.08 |
| CCNC(=S)N(CCN(C)C)Cc1cc2cc(OCC)ccc2[nH]c1=O | 2.14 |
| Cn1c(SCc2ccccc2)nc(C(F)(F)F)cc1=O | 0.229 |
| CN(Cc1ccon1)C(=O)CC1C(=O)NCCN1CC1CCCCC1 (stereo not shown) | 9.09 |
| Cc1cccc(C)c1NC(=O)COC(=O)CCc1c[nH]c2ccccc12 | 10.5 |
| COC(=O)C1=C(C)NC(=S)NC1c1sccc1C (stereo not shown) | 6.84 |
| Cc1ccc(CS(=O)(=O)CCC(=O)NCCc2ccccc2)cc1 | 9.48 |
| CC1CCCC(C)N1C(=O)COc1ccc(C(=O)Nc2ccccc2N2CCOCC2)cc1 (stereo not shown) | 7.19 |
| Cc1nc2ccc(F)cc2cc1C(=O)Nc1ccc(Cl)c(Cl)c1 | 11.6 |
| COCCNC(=O)c1ccc2c(=O)n(Cc3ccco3)c(SCC(=O)NC3CCCC3)nc2c1 | -2.89 |
| Cc1[nH]c(=O)nc(SCc2ccc(Cl)c(Cl)c2)c1C#N | 13.2 |
| Cn1c(=O)[nH]c(=O)c2c1nc(NCCCO)n2CCCc1ccccc1 | 3.04 |
| CC1(c2ccccc2)NC(=O)N(CC(=O)NCc2cccc(Cl)c2)C1=O (stereo not shown) | 9.52 |
| COc1ccccc1NS(=O)(=O)c1cccc(C(=O)NNC(=O)c2ccc(NC(C)=O)cc2)c1 | 13.9 |
| COc1ccc(CCC(C)NC2CCCCCCC2)cc1 (stereo not shown) | -5.51 |
| O=C(COc1ccc(Cl)cc1)Nc1cccc(-c2ccc(N3CCOCC3)nn2)c1 | 11.1 |
| Cc1ccc(NC(=O)c2cc3cccc([N+](=O)[O-])c3[nH]2)cc1 | 15.1 |
| COc1ccccc1N1CCN(Cc2cnc(-c3ccccc3)[nH]2)CC1 | 2.21 |

| Compound | hERG current change (%, negative = inhibition) at 1uM [%] |
| --- | --- |
| O=C(O)C(=O)O.c1ccc(-c2ccccc2OCCOCCN2CCOCC2)cc1 | 11.3 |
| Cc1[nH]nc2c1/C(=N\O)CCC2 | 1.4 |
| Oc1ccc(F)cc1-c1cc(-c2ccc3c(c2)OCCO3)n[nH]1 | 13.3 |
| Cn1nnc2cc(C(=O)Nc3cccnc3)ccc21 | 7.75 |
| CCOc1ccc(CN(C)C(=O)[C@H](Cc2ccccc2)NC(=O)OCc2ccccc2)cc1OC | 4.17 |
| CCCCN1C(=O)CCC(C(=O)O)C1c1ccc([N+](=O)[O-])cc1 (stereo not shown) | 13.8 |
| O=C1[C@H]2[C@H](ON3CCCC[C@H]23)C(=O)N1c1ccc(Cl)cc1 | 14.2 |
| CC(Oc1ccc(Cl)cc1)c1ccnn1S(=O)(=O)c1ccccc1 (stereo not shown) | 9.56 |
| COc1cc(C(=O)N2CCC(c3nc(-c4cccnc4)no3)CC2)cc(OC)c1OC | 8.83 |
| O=c1ccc(NS(=O)(=O)c2ccc(Cl)cc2)cn1Cc1ccc(Cl)c(Cl)c1 | 10.9 |
| Nc1c(O)cccc1C(=O)O | 16.2 |
| CCCN1C(=O)c2ccccc2NC1c1ccc(OC)c(CSc2ccccn2)c1 (stereo not shown) | 4.32 |
| CCOCc1nnc(NC(=O)CSc2ccc(C)cc2)s1 | 13.1 |
| CCCNC(=O)c1ccccc1N1CCN(CCCCN2C(=O)C3CCCCN3C2=O)CC1.Cl.O (stereo not shown) | 2.33 |
| O=C(/C=C/c1ccccc1)c1ccoc1 | 4.55 |
| COC(=O)c1ccccc1NC(=O)c1cn(-c2ccc(C)c(C)c2)c(=O)c2ccccc12 | 18.4 |
| CC(=O)Nc1cc(C(=O)CSc2nnc(C3CC3)n2C2CC2)ccc1O | 8.98 |
| Cc1cccc(/C=C/C(=O)c2ccc(NC3=NCCCS3)cc2)c1 | 20 |
| CC(C)c1ccc(CCNC(=O)c2cccc(S(=O)(=O)N3CCN(C)CC3)c2)cc1 | 4.31 |
| O=[N+]([O-])c1ccc2c(c1)C=C1CCCCC1(N1CCCC1)O2 (stereo not shown) | 1.26 |
| CC1=NOC(=O)/C1=C\c1ccc(-c2cccc(Cl)c2)o1 | 12 |
| COc1cc2c(cc1OC)CN(C(=O)CSc1nnc(C)s1)CC2 | 15.1 |

| Compound | hERG current change (%, negative = inhibition) at 1uM [%] |
| --- | --- |
| CC(OC(=O)C1CC1)C(=O)Nc1ccc([N+](=O)[O-])cc1Cl (stereo not shown) | 13.7 |
| CC12CCC(C(=O)Nc3cc(Cl)ccc3Cl)(C/C1=N\O)C2(C)C (stereo not shown) | -1.4 |
| CCOC(=O)c1sc(NC(=O)COc2ccc3c(c2)OCO3)nc1C | 6.71 |
| O=C(CCS(=O)(=O)Cc1cccc(Cl)c1)NCCc1ccccc1 | 9.93 |
| CCOc1cc(/C=N/NC(=O)COc2ccc(C)cc2)ccc1OC(=O)c1cccs1 | 8.29 |
| CCc1ccccc1NC(=O)CN(C)C(=O)CSc1nnc(Nc2cccc(C)c2C)s1 | 8.86 |
| NNC(=O)COc1ccccc1F | 8.73 |
| COc1ccc(COC(=O)N/N=C(\C)CC(=O)Nc2ccc(Cl)cn2)cc1 | 0.667 |
| Cc1ccccc1NS(=O)(=O)c1ccc(NS(=O)(=O)c2cccs2)cc1 | 11.5 |
| CCCCCCCN(C(=O)CCl)c1ccccc1C | 2.76 |
| Cc1ccc2c(C)nc(Nc3nc(CSc4nc5ccccc5[nH]4)cc(=O)[nH]3)nc2c1 | -2.23 |
| O=C(CSc1ccccn1)N/N=C/c1c[nH]c2ccccc12 | 14.6 |
| CCOC(=O)c1nn(-c2ccc(F)cc2)c2nc(Nc3ccccc3)cc(=O)n12 | 14.8 |
| COc1ccc(-c2csc(NC(=O)c3ccccc3Br)c2C(=O)O)cc1 | 14.8 |
| COc1ccccc1CN(CC(=O)NCC1CCCO1)C(=O)CNS(=O)(=O)c1ccc(C)cc1 (stereo not shown) | -0.52 |
| CCOC(=O)N1CCC(N2C(=O)c3ccccc3C2Nc2ccc(S(=O)(=O)N3CCOCC3)cc2)CC1 (stereo not shown) | 10.1 |
| CCOC(=O)c1sc(N)c(C#N)c1CSc1nnc(C2CCCCC2)n1N | 6.28 |
| COc1ccc(-c2nc(SC(C)C(=O)NCC3CCCO3)n[nH]2)cc1 (stereo not shown) | 0.826 |
| N#Cc1ccsc1NC(=O)CN(Cc1ccccc1)Cc1ccccc1 | 18.2 |
| COCCN(C(=O)CSc1nc2ccc(Cl)cc2[nH]1)c1c(N)n(Cc2ccccc2)c(=O)[nH]c1=O | 0.101 |
| O=C(CC(C(=O)O)P(=O)(c1ccccc1)c1ccccc1)c1ccccc1 (stereo not shown) | 15 |
| COc1ccc(OC)c(NC(=O)CC2Oc3ccccc3NC2=O)c1 (stereo not shown) | 14.1 |

| Compound | hERG current change (%, negative = inhibition) at 1uM [%] |
| --- | --- |
| CC(=O)c1ccc(Cc2ccccc2)cc1 | 5.62 |
| CC1(C)CC(NC(=O)COc2ccccc2Cl)CC(C)(C)N1 | 0.0789 |
| CCCCN1C(=O)c2ccc(C(=O)OCC(=O)N3CCN(c4ccccc4)CC3)cc2C1=O | 3.72 |
| CC(=O)Oc1ccc2oc(=O)c3c(c2c1)CCCN3C(=O)CN1CCN(c2ncccn2)CC1 | 8.16 |
| Cc1nnsc1C(=O)NNC(=O)c1ccc(C(F)(F)F)cc1 | 15.2 |
| COC(=O)c1c(C)[nH]c(C(=O)C(C)OC(=O)c2ccco2)c1C (stereo not shown) | 10.3 |
| O=C1c2ccccc2NC(c2c(Cl)cccc2Cl)N1Cc1ccccc1 (stereo not shown) | 5.41 |
| Cc1cccc(-c2nc(C)cc(=O)[nH]2)c1 | 15.7 |
| CC(C)n1cnc2c(N(C)c3ccccc3)nc(N(CCN(C)C)Cc3ccccc3)nc21 | -58.5 |
| COC(=O)c1nnn(-c2nonc2N)c1CSc1ccccn1 | 4.62 |
| Cn1c(=O)c(C(=O)COC(=O)c2cc(C(F)(F)F)nc3c(C(F)(F)F)cccc23)c(N)n(CC2CC2)c1=O | -1.07 |
| CCOC(=O)c1nnn(-c2nc(OC)nc(N3CCCC3)n2)c1-c1ccccc1 | 16.7 |
| COc1cc(OC)c(/C=C2\SC(=O)N(CC(=O)Nc3ccccc3F)C2=O)c(OC)c1 | 13.7 |
| CN(C)/C=C/C(=O)c1ccc(S(=O)c2ccccc2)cc1 (stereo not shown) | 22 |
| COc1cccc(CNC(=O)CCC2CCCN(C(=O)c3csc(C(C)C)n3)C2)c1 (stereo not shown) | 8.69 |
| CC1Cc2ccccc2N1C(=O)COc1cccc(-n2cnnn2)c1 (stereo not shown) | 9.52 |
| CC(=O)c1cccc(S(=O)(=O)Nc2cccc(S(=O)(=O)NC3=NCCC3)c2)c1 | 15.3 |
| Cc1cccc(N)c1SC1CCCCC1O (stereo not shown) | 2.33 |
| Cc1nn(C)c(C)c1S(=O)(=O)N1CCCC(C(=O)NC2CCCCCC2)C1 (stereo not shown) | 12.5 |
| O=C(/C=C/c1ccc2c(c1)OCO2)N1CCOCC1 | 6.84 |
| O=C(Nc1nnc(COc2ccc(Cl)cc2)s1)C1CCCO1 (stereo not shown) | 5.56 |
| Cc1ccc(N(C(=O)c2csnn2)C(C(=O)NC2CCCC2)c2ccccn2)cc1 (stereo not shown) | 13.7 |
